The supplement of paper PMC3334620
Whole data set: some 33,000 sequences, median “E-score (-0.5 to 0.5)” near -0.053, cut for the highest 2% near 0.37. The list shows a part of the results.

target: Hap1 (UniProt P0CE41); assay: PBM E-score (8-mer binding enrichment) (E-score (-0.5 to 0.5)); higher = stronger / more preferred TF binding; most listed sequences are background and not binding sites; conditions: protein concentration: 200 nM; construct: GST-DNA-binding domain
Method in brief: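 Bound GST-tagged yeast transcription factors, applied at about 100-200 nM to double-stranded universal all-10-mer Agilent arrays, were detected with fluorescent anti-GST. Scans were normalised with masliner. A modified Wilcoxon-Mann-Whitney statistic, the E-score, was assigned to each ungapped eight-base word pooled with its reverse complement by the Universal PBM Analysis Suite.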

UniProt P0CE41, sequence (P0CE41 whole entry, the tested form may be a part): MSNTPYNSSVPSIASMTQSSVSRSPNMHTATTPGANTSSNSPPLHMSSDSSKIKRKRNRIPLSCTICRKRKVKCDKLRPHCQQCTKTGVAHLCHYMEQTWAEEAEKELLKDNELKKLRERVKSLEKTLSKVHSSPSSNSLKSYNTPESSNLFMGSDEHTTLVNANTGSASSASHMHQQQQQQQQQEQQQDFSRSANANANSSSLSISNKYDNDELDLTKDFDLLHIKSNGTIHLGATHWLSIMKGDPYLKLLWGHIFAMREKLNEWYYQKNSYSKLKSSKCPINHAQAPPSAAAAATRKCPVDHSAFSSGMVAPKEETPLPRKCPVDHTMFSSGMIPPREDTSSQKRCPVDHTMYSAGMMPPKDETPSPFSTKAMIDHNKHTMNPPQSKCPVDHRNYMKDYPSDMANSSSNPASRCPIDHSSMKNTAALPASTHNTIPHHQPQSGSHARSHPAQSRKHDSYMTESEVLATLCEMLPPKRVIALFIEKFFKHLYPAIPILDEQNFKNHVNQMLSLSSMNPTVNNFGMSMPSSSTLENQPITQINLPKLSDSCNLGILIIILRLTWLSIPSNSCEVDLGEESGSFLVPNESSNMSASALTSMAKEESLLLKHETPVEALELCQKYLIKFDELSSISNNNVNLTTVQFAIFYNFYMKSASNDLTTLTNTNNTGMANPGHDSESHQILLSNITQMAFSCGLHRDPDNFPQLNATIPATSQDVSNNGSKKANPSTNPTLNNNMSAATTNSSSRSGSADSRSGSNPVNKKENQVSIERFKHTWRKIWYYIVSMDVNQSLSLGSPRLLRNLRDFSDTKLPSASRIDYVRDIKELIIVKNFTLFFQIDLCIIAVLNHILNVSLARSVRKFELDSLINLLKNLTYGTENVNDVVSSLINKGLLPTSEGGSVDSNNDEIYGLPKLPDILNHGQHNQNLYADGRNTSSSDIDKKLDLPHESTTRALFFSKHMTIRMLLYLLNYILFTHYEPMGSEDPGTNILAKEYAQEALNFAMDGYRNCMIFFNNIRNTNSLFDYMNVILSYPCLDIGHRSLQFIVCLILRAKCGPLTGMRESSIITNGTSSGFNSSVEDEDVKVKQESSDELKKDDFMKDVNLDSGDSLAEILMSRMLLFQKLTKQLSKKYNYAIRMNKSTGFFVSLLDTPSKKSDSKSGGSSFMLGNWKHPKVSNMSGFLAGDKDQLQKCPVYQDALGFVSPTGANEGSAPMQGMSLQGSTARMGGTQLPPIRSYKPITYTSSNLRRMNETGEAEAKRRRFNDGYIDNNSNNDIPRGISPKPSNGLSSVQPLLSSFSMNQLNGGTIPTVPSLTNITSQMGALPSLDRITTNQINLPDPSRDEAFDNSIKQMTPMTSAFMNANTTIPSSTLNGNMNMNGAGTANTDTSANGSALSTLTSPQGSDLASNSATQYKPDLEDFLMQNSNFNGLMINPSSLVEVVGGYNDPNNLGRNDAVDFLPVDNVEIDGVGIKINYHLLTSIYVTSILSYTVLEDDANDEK

Sequence	PBM E-score
CGTGATTA	0.016
GAGTTAAC	0.118
CCAGGCGC	-0.0378
CAACGCCA	-0.154
TTCCCAAA	-0.139
CATGCTGA	-0.235
ATCCGGCC	0.412
CTTGACAC	-0.266
GCCCTATA	-0.022
TAAAAAGA	-0.0263
ACGTGCGC	-0.0439
AAGGAACG	-0.0459
ATCATACG	0.0229
AGCCGCCG	0.182
AACACCTG	-0.0827
ATACTGAA	-0.176
ATACGAGC	-0.0187
CATACTGG	0.104
GTTCTGTA	-0.174
ACTTCAGG	-0.00179
AGAACATA	0.234
CAGGCTCG	0.0756
TCACGTGA	-0.0813
GTCCCAAA	-0.13
CTAACTAC	-0.0641

Sequence	PBM E-score
GCGACTCA	-0.0964
GGAACAAA	0.0674
GAAAATTA	0.025
CATTTGAC	-0.0393
CCGACGGA	0.386
GTAGGACA	0.0423
CTTGAGCA	-0.343
ACGGCAAT	0.254
CGGAATCC	0.313
CTCGTGCA	-0.208
AATCCATA	0.00302
CGCGATAC	0.17
CCACGTCG	-0.0481
AGAATCAC	0.0502
GCTTACTA	-0.243
ACAACGGG	0.222
CGACTAGA	-0.154
CCAGGCTA	-0.186
ACTCACCG	0.151
ACAAGAAA	0.00518
ACCAGGAC	-0.0159
AGGCGAGA	-0.159
AGAATGAG	-0.231
CGTAGGAC	0.00085
GACACAAA	0.132

Sequence	PBM E-score
CCTTTCTA	-0.03
TGAGACCA	-0.264
ATCTGTTG	-0.0716
AGCTGCGG	0.191
GCGCTATA	-0.0951
CACGTTAA	-0.207
ACAGATCG	0.0276
CTGCACGC	-0.107
AAGCCTAG	-0.133
AGACAATC	-0.0273
AAAGCTCA	-0.252
GAAACCCA	0.148
CTTAACAA	-0.0403
AGTCCCGG	0.322
GCGCTCAC	-0.0742
ACAATGGG	0.0849
AGTATAAA	0.24
CGTCTGTA	-0.0818
GAGCGGGC	0.0956
AGGATGAA	-0.0625
ATGGGCAC	0.00145
CTAGGACC	-0.00968
AGTAGAGA	-0.216
CCCGCGTA	0.139
CTCGGTAC	0.197

Sequence	PBM E-score
TACCGGAA	0.442
CCCGACAA	0.311
GCCGGCCA	0.284
ACTCAACC	-0.0121
GAGCTAAC	0.2
AGTCAGTC	-0.186
AATTCCGG	0.451
ACCCCAAT	-0.223
CGATGCCG	0.179
CCCATCCA	-0.125
CAAAGCAA	0.0207
CGAGCGGC	0.238
ATAATTTC	0.146
GCTCCTCA	-0.218
AGTCAGTA	-0.222
GCCAAACC	0.0907
ATCCTATC	0.158
GTGAGACA	-0.0699
ATAGGAAA	0.0814
AGTCCTTC	-0.0394
CCGAAGAA	0.328
ACGAACCC	0.183
TATACTCA	-0.149
TTAGATAA	-0.194
CGTGCATA	-0.228

Sequence	PBM E-score
ATAAGGTG	0.101
GACATCGC	0.136
ATGGTCCA	-0.226
TCGGACAA	0.394
GAATTATC	-0.0341
CACAAAAC	-0.032
CCCCATCC	0.094
CTCGTATC	0.00451
CGGTTTCC	0.281
CAACAGTC	-0.0859
AATCACGA	-0.0677
CCCTAGGA	-0.214
AGGTACAT	-0.257
TCTGTCAA	-0.19
ATGTCCGC	0.374
CTGTCTGA	-0.128
CAAGCTGC	0.073
CCAAGGAC	-0.213
CAATAACA	-0.223
AGTGCTAC	-0.274
AGAATTGC	-0.0636
TGAGCAAA	-0.0621
AGAACGCA	-0.145
TCGATCAA	-0.151
CTCGCGTC	0.0937

Sequence	PBM E-score
CAATATAC	-0.105
AGTTGACA	-0.211
ACCGCATA	0.141
CCGGCGTC	0.308
ACACCGAT	0.336
CCTACATC	0.0921
GCTCATCA	-0.0635
ACAGACAC	-0.0222
ACTATTCT	-0.0623
CGTGCTTA	-0.0624
GCCATCCC	-0.0981
GGTATGAA	-0.131
GGGTTGCA	-0.0863
CTGCGTGA	-0.0972
AAGATTGC	-0.085
CGGTATTC	0.304
AAAGTTAT	0.0134
CCAGATAG	-0.308
ATGGAGAC	-0.0655
ATTATATC	0.126
GAGCCCAA	-0.156
CATGCACC	-0.0714
CTCGAGTC	-0.169
GGTTAGAA	-0.101
TACTAGAA	-0.0532

Sequence	PBM E-score
ATCTCGTA	-0.144
ACGTAAGC	-0.106
AACGGAGT	0.373
CGAGGTGC	0.196
GCTAGCTA	-0.199
GTTGCGTA	-0.0346
CGAAATAC	0.163
AAGCTATA	-0.185
AGCAAATA	-0.0902
GGCTCTAA	0.113
CAAGGGTC	0.0456
CGTAACGC	0.0437
AGGTCAAG	-0.17
GCAGCTCC	-0.045
CCCGCTTA	0.068
CAGCCATG	-0.281
GAAACTCC	0.172
CTTTTATC	0.295
ATTTCGAA	0.00741
CTTGTCCC	0.174
GGTGAAAC	0.158
TCAGATCA	-0.289
GTACGAGA	-0.013
ACATGACC	-0.189
AGTAAGAC	-0.13

Sequence	PBM E-score
ACGCAGAG	-0.138
GGTTAAGA	0.0931
CAGGCGAC	0.0654
AGTGTGGG	-0.082
GGCGATTA	0.29
AGCAAAGG	-0.123
AATGCTAA	-0.147
GGCAGATA	0.137
CCCACCGA	0.0319
CTATCTGA	-0.318
GCCGTCGC	0.0639
TAATCTGA	-0.00376
ACGCTTTA	-0.238
CGATTTCC	0.294
CAGGTCAC	-0.34
AACTTGAG	-0.183
ATGTGCTA	0.0588
GTCCCACA	-0.0652
AGTAACTC	0.0357
CATCCACA	-0.161
CGACCATC	0.061
GTAGTACA	-0.194
ATCACGAT	-0.186
ACGCTAAG	-0.259
GGACAGGA	-0.138

Sequence	PBM E-score
ATCGAAGG	-0.0491
GTGTGAAA	-0.146
AAAAACGT	-0.122
AGGCTTAC	-0.00465
CGGCATAC	0.196
CACACGAC	-0.152
AAGTTGTG	-0.103
AACAAATA	0.0382
ATTACACG	0.0389
AGGGTAAG	0.0224
TAAACGCA	-0.181
AGATGAAT	-0.22
TCCCACGA	-0.0711
CCGGACTA	0.404
GCTAGGTA	-0.167
CATACGTA	-0.0246
GTGATCTA	0.0438
ACCACATA	-0.107
ACGCATCG	0.0393
